# Test results taken from the RNAGym collection of RNA variant scans (doi:10.1093/nar/gkz1192).
# Read counts are not given, so values of variants with three or more changes are uncertain.
# B1: CPEB3 Ribozyme (parent)
# chain: UAACAGGGGGCCACAGCAGAAGCGUUCACGUCGCAGCCCCUGUCAGAUUCUGGUGAAUCUGCGAAUUCUGCUGUAUAUCUC
# Variants of: B1
# Assay: self-cleavage, relative activity (ratio to wild type); higher = more cleavage; in vitro, sequencing
# Summary of the method: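 For each CPEB3 ribozyme variant, relative activity is its cleaved/total read fraction divided by the unmutated ribozyme's. Barcoded error-prone PCR libraries were transcribed by T7 RNA polymerase (5 hours, 37°C) and held in DNase I for 15 min before an EDTA stop, with cleavage occurring throughout. Template-switching reverse transcription and Illumina sequencing were used to read the RNAs. A 5-read minimum applied, and results are the mean of three batches.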
row,Variant,self-cleavage
1,A13U G42C C44G A64U U72A U80C,0.14
2,A13U G42C U58A U67A U76C,0.11
3,A13U G52A G55C,1.11
4,A13U G53U U54C,1.16
5,A13U G61A A64G U66C G73A U78C,0.26
6,A13U G73A U78C,1.34
7,A13U G73U U76C,1.3
8,A13U U25A A35U U54C,0.44
9,A13U U25A A47U C50A,0.08
10,A13U U25A A56U,0.15
11,A13U U25A C37A U60C,0.08
12,A13U U25A U26C A35U U54G,0.13
13,A13U U25A U26G U49C U51C A64G,0.06
14,A13U U25A U41C U43A G73A,0.1
15,A13U U25A U48C,0.13
16,A13U U25A U49A A56U U58C A77G,0.14
17,A13U U25A U51C U60A U66C,0.31
18,A13U U25A U54A U60G U66C,0.14
19,A13U U25A U54C A65G,0.11
20,A13U U25A U69A,0.12
21,A13U U25A U69C,0.16

row,Variant,self-cleavage
1,A13U U25C A35G A57U,0.56
2,A13U U25C A35G U67C,0.09
3,A13U U25C A45G,0.23
4,A13U U25C A45G A56G,0.24
5,A13U U25C A45G U51A U76A,0.05
6,A13U U25C A45U,0.22
7,A13U U25C A47G,0.27
8,A13U U25C A65G,0.14
9,A13U U25C A77U,0.21
10,A13U U25C C27A A65G,0.07
11,A13U U25C C29U U54C U78C,0.08
12,A13U U25C C39U U69A,0.36
13,A13U U25C C44A G53U U54C U76C,0.06
14,A13U U25C C62U U66C,0.13
15,A13U U25C C81A,0.1
16,A13U U25C G33A G36A U78A,0.06
17,A13U U25C G33A U58G A77G U78C,0.09
18,A13U U25C G46U A56G U58C,0
19,A13U U25C G55C U72A,0.09
20,A13U U25C U26C A28G G42U G63A,0.09
21,A13U U25C U26C U72C,0.15

row,Variant,self-cleavage
1,A13U U25C U31C U43A A64G,0.12
2,A13U U25C U31C U51A U58C A65G,0.06
3,A13U U25C U31C U60C,0.36
4,A13U U25C U41C A47G,0.23
5,A13U U25C U41C C62U U78C,0.03
6,A13U U25C U41C U43C A45U A57G,0.22
7,A13U U25C U43C U48A,0.05
8,A13U U25C U51C U66C G70A,0.09
9,A13U U25C U51C U67C G70A,0.08
10,A13U U25C U54C,0.1
11,A13U U25C U54C A65U,0.19
12,A13U U25C U60A U74C U78C,0.28
13,A13U U25C U67C,0.16
14,A13U U25C U72A,0.09
15,A13U U25C U74A,0.16
16,A13U U25G A57U U72C U80C,0.08
17,A13U U25G U41C A56G U72C,0.09
18,A13U U25G U60C U72C U80C,0.1
19,A13U U26A A28C U80A,0.51
20,A13U U26A A28U A45G,0.47
21,A13U U26A A45G,0.96

row,Variant,self-cleavage
1,A13U U26A A57G U67C,0.3
2,A13U U26A A64G,1.01
3,A13U U26A A65G,0.55
4,A13U U26A C29G A35U U72A,0.09
5,A13U U26A C32U A57C A65G U80C,0.08
6,A13U U26A C38U A57G A64G U74A U78C,0.06
7,A13U U26A C40U A47G U48C U51G U76G,0.04
8,A13U U26A U31C U54G U60C U67C U69A,0.15
9,A13U U26A U41A,0.12
10,A13U U26A U41C A65G U72A,0.25
11,A13U U26A U43C U49C A65G U78A,0.13
12,A13U U26A U43G,0.25
13,A13U U26A U43G A45U,0.18
14,A13U U26A U51A U78C,0.98
15,A13U U26A U69A,0.51
16,A13U U26A U76C,1.17
17,A13U U26C A35U U51A,0.08
18,A13U U26C A45U U48C,0.08
19,A13U U26C A47G U76C,0.58
20,A13U U26C A57G U58C,0.08
